# Measured values published in the supplement of paper PMC8728848.
# The list shows a part of the results.
# B1: Epa3 (Candida glabrata), Q6VBI8_CANGB (protein)
# chain: MGSSHHHHHHSSGLVPRGSHMNDLGFSLFEKRELSSQNPFGYPIGCSPQDVAIIPGLTMELYSYPIVSGTPPNCYDASYVDPEYPRTGYLKRKMVGKSTGVTGNLNYKYSVEKACMVKYGNLPAGYNYNEPLTVSNFTMILYGYFKAQTTGLHTFFVNADDLLYINFGAGNAFDCCKREDSKTKLGEYVAYDIWHVDSSKNKVSLFLEKDLYYPIRMFFNNIGKDSSLDLSFSVNGATDQISDFSGYLYSVPDQPDTCPAHIGYDTTCR
# Assays:
# Assay in all cases: glycan array binding signal (z-score within array); higher = stronger binding
# Details in all cases: glycan notation: IUPAC condensed, linker removed
# [1] = molecular target: Fuc(a1-2)Gal(b1-4)GlcNAc(b1-3)Gal(b1-4)GlcNAc(b1-2)Man(a1-3)[Fuc(a1-2)Gal(b1-4)GlcNAc(b1-3)Gal(b1-4)GlcNAc(b1-2)Man(a1-6)]Man(b1-4)GlcNAc(b1-4)GlcNAc
# Outline: (§1)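 Glycan array data came from 3228 arrays in the Consortium for Functional Glycomics database, and only arrays with an available protein sequence were kept. Glycan names were put into IUPAC-condensed notation, and columns mapping to the same glycan were averaged. The binding signal is a within-array Z-score, averaged across arrays of one protein sequence run at different concentrations or buffers and across linkers. A negative Z-score can be read as non-binding.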
# [2] = molecular target: Fuc(a1-2)Gal(b1-4)GlcNAc(b1-3)Gal(b1-4)GlcNAc(b1-3)Gal(b1-4)GlcNAc
# Outline: as §1
# [3] = molecular target: Fuc(a1-2)Gal(b1-4)GlcNAc(b1-3)GalNAc
# Outline: as §1
# [4] = molecular target: Fuc(a1-2)Gal(b1-4)GlcNAc(b1-3)[Fuc(a1-2)Gal(b1-4)GlcNAc(b1-6)]GalNAc
# Outline: as §1
# [5] = molecular target: Fuc(a1-2)Gal(b1-4)GlcNAc(b1-3)[Fuc(a1-3)[Gal(b1-4)]GlcNAc(b1-6)]Gal(b1-4)Glc
# Outline: as §1
# [6] = molecular target: Fuc(a1-2)Gal(b1-4)GlcNAc(b1-6)GalNAc
# Outline: as §1
# [7] = molecular target: Fuc(a1-2)Gal(b1-4)GlcNAc6S
# Outline: as §1
# [8] = molecular target: Fuc(a1-2)Gal(b1-4)[Fuc(a1-3)]GlcNAc
# Outline: as §1
# [9] = molecular target: Fuc(a1-2)Gal(b1-4)[Fuc(a1-3)]GlcNAc(b1-2)Man(a1-3)[Fuc(a1-2)Gal(b1-4)[Fuc(a1-3)]GlcNAc(b1-2)Man(a1-6)]Man(b1-4)GlcNAc(b1-4)[Fuc(a1-6)]GlcNAc
# Outline: as §1
# [10] = molecular target: Fuc(a1-2)Gal(b1-4)[Fuc(a1-3)]GlcNAc(b1-2)[Fuc(a1-2)Gal(b1-4)[Fuc(a1-3)]GlcNAc(b1-4)]Man(a1-3)[Fuc(a1-2)Gal(b1-4)[Fuc(a1-3)]GlcNAc(b1-2)Man(a1-6)]Man(b1-4)GlcNAc(b1-4)GlcNAc
# Outline: as §1
# [11] = molecular target: Fuc(a1-2)Gal(b1-4)[Fuc(a1-3)]GlcNAc(b1-3)Gal(b1-4)[Fuc(a1-3)]GlcNAc
# Outline: as §1
# [12] = molecular target: Fuc(a1-2)Gal(b1-4)[Fuc(a1-3)]GlcNAc(b1-3)Gal(b1-4)[Fuc(a1-3)]GlcNAc(b1-3)Gal(b1-4)[Fuc(a1-3)]GlcNAc
# Outline: as §1
# [13] = molecular target: Fuc(a1-2)Gal(b1-4)[Fuc(a1-3)]GlcNAc(b1-3)GalNAc
# Outline: as §1
# [14] = molecular target: Fuc(a1-2)Gal(b1-4)[Fuc(a1-3)]GlcNAc(b1-3)[Neu5Ac(a2-6)Gal(b1-4)GlcNAc(b1-6)]Gal(b1-4)Glc
# Outline: as §1
# [15] = molecular target: Fuc(a1-2)Gal3S(b1-4)GlcNAc
# Outline: as §1
# [16] = molecular target: Fuc(a1-2)Gal6S(b1-3)GlcNAc
# Outline: as §1
# [17] = molecular target: Fuc(a1-2)Gal6S(b1-3)GlcNAc6S
# Outline: as §1
# Fuc(a1-2)Gal6S(b1-4)Glc = molecular target: Fuc(a1-2)Gal6S(b1-4)Glc
# Outline: as §1
# [18] = molecular target: Fuc(a1-2)Gal6S(b1-4)Glc6S
# Outline: as §1
# Fuc(a1-2)[Gal(a1-3)]Gal = molecular target: Fuc(a1-2)[Gal(a1-3)]Gal
# Outline: as §1
# [19] = molecular target: Fuc(a1-2)[Gal(a1-3)]Gal(b1-3)GalNAc
# Outline: as §1
# [20] = molecular target: Fuc(a1-2)[Gal(a1-3)]Gal(b1-3)GalNAc(b1-3)Gal(a1-4)Gal(b1-4)Glc
# Outline: as §1
# [21] = molecular target: Fuc(a1-2)[Gal(a1-3)]Gal(b1-3)GlcNAc
# Outline: as §1
# [22] = molecular target: Fuc(a1-2)[Gal(a1-3)]Gal(b1-3)GlcNAc(b1-2)Man(a1-3)[Fuc(a1-2)[Gal(a1-3)]Gal(b1-3)GlcNAc(b1-2)Man(a1-6)]Man(b1-4)GlcNAc(b1-4)GlcNAc
# Outline: as §1
# [23] = molecular target: Fuc(a1-2)[Gal(a1-3)]Gal(b1-3)GlcNAc(b1-2)Man(a1-3)[Fuc(a1-2)[Gal(a1-3)]Gal(b1-3)GlcNAc(b1-2)Man(a1-6)]Man(b1-4)GlcNAc(b1-4)[Fuc(a1-6)]GlcNAc
# Outline: as §1
# [24] = molecular target: Fuc(a1-2)[Gal(a1-3)]Gal(b1-3)GlcNAc(b1-3)GalNAc
# Outline: as §1
# [25] = molecular target: Fuc(a1-2)[Gal(a1-3)]Gal(b1-3)GlcNAc(b1-6)GalNAc
# Outline: as §1
# [26] = molecular target: Fuc(a1-2)[Gal(a1-3)]Gal(b1-4)Glc
# Outline: as §1
# [27] = molecular target: Fuc(a1-2)[Gal(a1-3)]Gal(b1-4)GlcNAc
# Outline: as §1
# [28] = molecular target: Fuc(a1-2)[Gal(a1-3)]Gal(b1-4)GlcNAc(b1-2)Man
# Outline: as §1
# [29] = molecular target: Fuc(a1-2)[Gal(a1-3)]Gal(b1-4)GlcNAc(b1-2)Man(a1-3)[Fuc(a1-2)[Gal(a1-3)]Gal(b1-4)GlcNAc(b1-2)Man(a1-6)]Man(b1-4)GlcNAc(b1-4)GlcNAc
# Outline: as §1
# [30] = molecular target: Fuc(a1-2)[Gal(a1-3)]Gal(b1-4)GlcNAc(b1-2)Man(a1-3)[Fuc(a1-2)[Gal(a1-3)]Gal(b1-4)GlcNAc(b1-2)Man(a1-6)]Man(b1-4)GlcNAc(b1-4)[Fuc(a1-6)]GlcNAc
# Outline: as §1
# [31] = molecular target: Fuc(a1-2)[Gal(a1-3)]Gal(b1-4)GlcNAc(b1-3)GalNAc
# Outline: as §1
# [32] = molecular target: Fuc(a1-2)[Gal(a1-3)]Gal(b1-4)GlcNAc(b1-3)[Fuc(a1-2)[Gal(a1-3)]Gal(b1-4)GlcNAc(b1-6)]GalNAc
# Outline: as §1
# [33] = molecular target: Fuc(a1-2)[Gal(a1-3)]Gal(b1-4)GlcNAc(b1-6)GalNAc
# Outline: as §1
# [34] = molecular target: Fuc(a1-2)[Gal(a1-3)]Gal(b1-4)[Fuc(a1-3)]Glc
# Outline: as §1
# [35] = molecular target: Fuc(a1-2)[Gal(a1-3)]Gal(b1-4)[Fuc(a1-3)]GlcNAc
# Outline: as §1
# [36] = molecular target: Fuc(a1-2)[Gal(a1-3)]Gal(b1-4)[Fuc(a1-3)]GlcNAc(b1-3)GalNAc
# Outline: as §1
# [37] = molecular target: Fuc(a1-2)[Gal(a1-4)]Gal(b1-4)GlcNAc
# Outline: as §1
# [38] = molecular target: Fuc(a1-2)[GalNAc(a1-3)]Gal
# Outline: as §1
# [39] = molecular target: Fuc(a1-2)[GalNAc(a1-3)]Gal(b1-3)GalNAc(a1-3)[Fuc(a1-2)]Gal(b1-4)GlcNAc
# Outline: as §1
# [40] = molecular target: Fuc(a1-2)[GalNAc(a1-3)]Gal(b1-3)GalNAc(b1-3)Gal(a1-4)Gal(b1-4)Glc
# Outline: as §1
# [41] = molecular target: Fuc(a1-2)[GalNAc(a1-3)]Gal(b1-3)GlcNAc
# Outline: as §1
# [42] = molecular target: Fuc(a1-2)[GalNAc(a1-3)]Gal(b1-3)GlcNAc(b1-2)Man(a1-3)[Fuc(a1-2)[GalNAc(a1-3)]Gal(b1-3)GlcNAc(b1-2)Man(a1-6)]Man(b1-4)GlcNAc(b1-4)GlcNAc
# Outline: as §1
# [43] = molecular target: Fuc(a1-2)[GalNAc(a1-3)]Gal(b1-3)GlcNAc(b1-2)Man(a1-3)[Fuc(a1-2)[GalNAc(a1-3)]Gal(b1-3)GlcNAc(b1-2)Man(a1-6)]Man(b1-4)GlcNAc(b1-4)[Fuc(a1-6)]GlcNAc
# Outline: as §1
binder,measurement,setting,value
B1,glycan array binding signal (z-score),[1],0.01
same,glycan array binding signal (z-score),[2],-0.268
same,glycan array binding signal (z-score),[3],0.172
same,glycan array binding signal (z-score),[4],-0.133
same,glycan array binding signal (z-score),[5],-0.289
same,glycan array binding signal (z-score),[6],0.068
same,glycan array binding signal (z-score),[7],-0.21
same,glycan array binding signal (z-score),[8],-0.32
same,glycan array binding signal (z-score),[9],0.042
same,glycan array binding signal (z-score),[10],0.047
same,glycan array binding signal (z-score),[11],-0.018
same,glycan array binding signal (z-score),[12],0.299
same,glycan array binding signal (z-score),[13],0.718
same,glycan array binding signal (z-score),[14],-0.262
same,glycan array binding signal (z-score),[15],-0.154
same,glycan array binding signal (z-score),[16],-0.369
same,glycan array binding signal (z-score),[17],0.201
same,glycan array binding signal (z-score),Fuc(a1-2)Gal6S(b1-4)Glc,-0.079
same,glycan array binding signal (z-score),[18],0.004
same,glycan array binding signal (z-score),Fuc(a1-2)[Gal(a1-3)]Gal,-0.005
same,glycan array binding signal (z-score),[19],-0.246
same,glycan array binding signal (z-score),[20],-0.278
same,glycan array binding signal (z-score),[21],-0.212
same,glycan array binding signal (z-score),[22],-0.265
same,glycan array binding signal (z-score),[23],-0.254
same,glycan array binding signal (z-score),[24],-0.333
same,glycan array binding signal (z-score),[25],-0.275
same,glycan array binding signal (z-score),[26],0.169
same,glycan array binding signal (z-score),[27],-0.242
same,glycan array binding signal (z-score),[28],-0.148
same,glycan array binding signal (z-score),[29],-0.263
same,glycan array binding signal (z-score),[30],-0.278
same,glycan array binding signal (z-score),[31],-0.324
same,glycan array binding signal (z-score),[32],-0.123
same,glycan array binding signal (z-score),[33],-0.159
same,glycan array binding signal (z-score),[34],-0.25
same,glycan array binding signal (z-score),[35],0.113
same,glycan array binding signal (z-score),[36],0.123
same,glycan array binding signal (z-score),[37],0.131
same,glycan array binding signal (z-score),[38],-0.223
same,glycan array binding signal (z-score),[39],-0.258
same,glycan array binding signal (z-score),[40],-0.272
same,glycan array binding signal (z-score),[41],-0.201
same,glycan array binding signal (z-score),[42],-0.392
same,glycan array binding signal (z-score),[43],-0.205
